Results taken from PubChem BioAssay (NCATS).
Values joined by “and” are separate entries in the source; they are usually repeats but may differ in a detail not shown here. Equal entries are not always repeated. Inconclusive results, whose numbers are uncertain, are shown with a selection of clear calls. For some assays here: Potencies of inconclusive entries are doubtful fits and often do not repeat. Active and inactive are the calls of the source. Calls follow the shape of the dose curve; as a rule, active = well fitted curve in the direction sought with a large enough effect; inconclusive = small, poorly fitted or top-dose-only effect, or another doubt; inactive = no such curve, though single readings can be large; an effect the other way counts as inactive or inconclusive.

What was measured:
[1] = qHTS of pediatric cancer cell lines to identify multiple opportunities for drug repurposing: Primary screen for SJ-GBM2 cells (AID 1347091); also: potency is read from the fitted curve at half-maximal effect
In short: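 Viability measured as metabolically active cells via CellTiter-Glo luminescence following 48 hours of compound exposure, 11-point dilutions in confirmatory testing. 500-1,000 cells/well plated 5 hours before dosing; controls were DMSO and 2.3 µM bortezomib.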

[2] = qHTS of pediatric cancer cell lines to identify multiple opportunities for drug repurposing: Primary screen for Saos-2 cells (AID 1347097); also: nearly all actives have a fitted effect of over 40% in size; also: potency is read from the fitted curve at half-maximal effect
In short: (§1)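 Readout: CellTiter-Glo luminescence, 48 h treatment. Controls DMSO (neutral) and bortezomib 2.3 µM final (positive). Potency and efficacy taken from primary-screen concentration-response curves.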

[3] = qHTS of pediatric cancer cell lines to identify multiple opportunities for drug repurposing: Primary screen for LAN-5 cells (AID 1347100); conditions: LAN-5 neuroblastoma viability, CellTiter-Glo luminescence, 48 h; activity change, negative = cytotoxic: at 46 µM (top of the series); also: potency is read from the fitted curve at half-maximal effect
In short: (§2)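 Viability after 48 h compound treatment at 37C, 500-1,000 cells/well, read as ATP luminescence with CellTiter-Glo. Primary screens used 11-point (MIPE, 0.78 nM-46 µM) or 8-point (NPC, 0.59 nM-46 µM) final concentrations; follow-up screens used 11-point dilutions.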

[4] = qHTS of pediatric cancer cell lines to identify multiple opportunities for drug repurposing: Primary screen for Rh18 cells (AID 1347102); also: nearly all actives have a fitted effect of over 65% in size; also: potency is read from the fitted curve at half-maximal effect
In short: as §2

[5] = qHTS of pediatric cancer cell lines to identify multiple opportunities for drug repurposing: Primary screen for A673 cells (AID 1347092); conditions: A673 Ewing sarcoma viability, CellTiter-Glo ATP luminescence, 48 h; activity change, negative = cytotoxic: at 46 µM (top of the series); also: nearly all actives have a fitted effect of over 45% in size; also: potency is read from the fitted curve at half-maximal effect
In short: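 A673 cells (500-1,000 cells/well in growth media) were pre-incubated 5 h at 37 degrees C, then exposed to compounds for 48 h. Viability was read as CellTiter-Glo luminescence; concentration-response curves came directly from the primary screen.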

[6] = qHTS of pediatric cancer cell lines to identify multiple opportunities for drug repurposing: Primary screen for SK-N-MC cells (AID 1347093); conditions: SK-N-MC viability, CellTiter-Glo luminescence, 48 h; activity change, negative = cytotoxic: at 46 µM (top of the series); also: potency is read from the fitted curve at half-maximal effect
In short: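 Metabolically active cells were quantified by ATP-dependent luminescence (CellTiter-Glo, 15 min at room temperature) following 48 h treatment. Cells had been plated at 500-1,000 per well and settled for 5 h beforehand.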

[7] = qHTS of pediatric cancer cell lines to identify multiple opportunities for drug repurposing: Primary screen for NB1643 cells (AID 1347099); also: potency is read from the fitted curve at half-maximal effect; nearly all actives have a fitted effect of over 50% in size
In short: as §1

[8] = qHTS of pediatric cancer cell lines to identify multiple opportunities for drug repurposing: Primary screen for BT-12 cells (AID 1347101); also: potency is read from the fitted curve at half-maximal effect; nearly all actives have a fitted effect of over 25% in size
In short: (§3)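 Cells (500-1,000/well) rested 5 h, then received compounds for 48 h; metabolically active cells were measured by CellTiter-Glo luminescence. Final concentrations spanned up to 46 µM (MIPE, 11-point) or 0.59 nM-46 µM (NPC, 8-point) in primary screens, 11-point in follow-ups.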

[9] = qHTS of pediatric cancer cell lines to identify multiple opportunities for drug repurposing: Primary screen for MG 63 (6-TG R) cells (AID 1347105); conditions: MG 63 (6-TG R) viability, CellTiter-Glo, 48 h; activity change, negative = cytotoxic: at 46 µM (top of the series); also: potency is read from the fitted curve at half-maximal effect; nearly all actives have a fitted effect of over 50% in size
In short: as §1

[10] = qHTS of pediatric cancer cell lines to identify multiple opportunities for drug repurposing: Primary screen for control Hh wild type fibroblast cells (AID 1347106); also: potency is read from the fitted curve at half-maximal effect; nearly all actives have a fitted effect of over 55% in size
In short: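 Cells (500-1,000/well) in growth media were settled 5 h at 37 degrees C, then given compounds for 48 h. Viability was read as CellTiter-Glo luminescence. Primary runs used MIPE at 11 points (0.78 nM-46 µM) and NPC at 8 points (0.59 nM-46 µM); follow-ups used 11 points.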

[11] = qHTS of pediatric cancer cell lines to identify multiple opportunities for drug repurposing: Primary screen for Rh41 cells (AID 1347108); also: nearly all actives have a fitted effect of over 70% in size; also: potency is read from the fitted curve at half-maximal effect;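 as to activity change, negative = cytotoxic: luminescence drop marks cytotoxic hits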
In short: as §1

[12] = qHTS of pediatric cancer cell lines to identify multiple opportunities for drug repurposing: Confirmatory screen for NB1643 cells (AID 1347109); conditions: NB1643 neuroblastoma cell viability; activity change, negative = cytotoxic: at 45.9 µM (top of the series); also: nearly all actives have a fitted effect of over 45% in size
In short: as §2

[13] = qHTS of pediatric cancer cell lines to identify multiple opportunities for drug repurposing: Primary screen for BT-37 cells (AID 1347094); also: potency is read from the fitted curve at half-maximal effect
In short: as §1

[14] = qHTS of pediatric cancer cell lines to identify multiple opportunities for drug repurposing: Primary screen for NB-EBc1 cells (AID 1347095); also: potency is read from the fitted curve at half-maximal effect
In short: as §1

[15] = qHTS of pediatric cancer cell lines to identify multiple opportunities for drug repurposing: Primary screen for SK-N-SH cells (AID 1347098); also: nearly all actives have a fitted effect of over 65% in size; also: potency is read from the fitted curve at half-maximal effect
In short: as §3

[16] = qHTS of pediatric cancer cell lines to identify multiple opportunities for drug repurposing: Primary screen for OHS-50 cells (AID 1347103); also: potency is read from the fitted curve at half-maximal effect; nearly all actives have a fitted effect of over 40% in size
In short: as §3

[17] = qHTS of pediatric cancer cell lines to identify multiple opportunities for drug repurposing: Primary screen for RD cells (AID 1347104); also: potency is read from the fitted curve at half-maximal effect; nearly all actives have a fitted effect of over 55% in size
In short: as §1

[18] = qHTS of pediatric cancer cell lines to identify multiple opportunities for drug repurposing: Primary screen for U-2 OS cells (AID 1347096); also: potency is read from the fitted curve at half-maximal effect; nearly all actives have a fitted effect of over 50% in size
In short: as §2

[19] = qHTS of pediatric cancer cell lines to identify multiple opportunities for drug repurposing: Primary screen for Rh30 cells (AID 1347107); also: potency is read from the fitted curve at half-maximal effect; nearly all actives have a fitted effect of over 75% in size
In short: as §2

Measured: Potency
Tags tell the direction and shape of the fitted curve.

O=C1CCC(N2C(=O)c3ccccc3C2=O)C(=O)N1 (centres undefined)
inconclusive: [2] 0.332 µM [cytotoxic, full curve] | [4] 18.7 µM [cytotoxic, partial curve, poor fit]
inactive: [1] | [3]

CCOC(=O)c1ccc(C#Cc2ccc3c(c2)C(C)(C)CCS3)nc1
inactive: [11] | [12]
inconclusive: [5] 21.1 µM [cytotoxic, single point] | [6] 26.6 µM [cytotoxic, partial curve, poor fit] | [2] 26.6 µM [cytotoxic, single point] and 20.9 µM [cytotoxic, partial curve] | [7] 33.2 µM [cytotoxic, single point] | [3] 26.6 µM [cytotoxic, single point] and 37.2 µM [cytotoxic, single point] | [8] 19.5 µM [cytotoxic, single point] | [9] 0.0335 µM [cytotoxic, full curve, poor fit] | [10] 23.5 µM [cytotoxic, single point]

COc1ccc(CCN2CCN(CCCc3ccccc3)CC2)cc1OC
inconclusive: [5] 23.5 µM [cytotoxic, single point] | [13] 19.3 µM [cytotoxic, partial curve, poor fit] | [14] 6.62 µM [cytotoxic, full curve, poor fit] | [2] 2.96 µM [cytotoxic, partial curve] | [3] 18.7 µM [cytotoxic, partial curve] | [8] 27.3 µM [cytotoxic, single point] | [16] 13.7 µM [cytotoxic, partial curve] | [17] 18.7 µM [cytotoxic, partial curve, poor fit]
inactive: [15]

CC1=NN(c2ccccc2)C(=O)C1
inactive: [1] | [2] | [4]

CC(C)(F)C[C@H](N[C@@H](c1ccc(-c2ccc(S(C)(=O)=O)cc2)cc1)C(F)(F)F)C(=O)NC1(C#N)CC1
inconclusive: [14] 16.6 µM [cytotoxic, partial curve] | [4] 26.4 µM [cytotoxic, single point] | [16] 24.3 µM [cytotoxic, partial curve, poor fit] | [17] 18.7 µM [cytotoxic, partial curve, poor fit] | [11] 7.43 µM [cytotoxic, partial curve]
active: [1] 14.8 µM

O=C(NOC[C@H](O)CO)c1ccc(F)c(F)c1Nc1ccc(I)cc1F
inconclusive: [13] 0.273 µM [cytotoxic, partial curve] | [14] 0.0083 µM [cytotoxic, full curve] | [18] 14.8 µM [cytotoxic, partial curve] | [7] 1.18 µM [cytotoxic, full curve] | [8] 7.69 µM [cytotoxic, partial curve] | [9] 14.8 µM [cytotoxic, partial curve, poor fit] | [10] 1.66 µM [cytotoxic, full curve, poor fit] | [19] 4.69 µM [cytotoxic, partial curve, poor fit] | [11] 5.26 µM [cytotoxic, partial curve]
inactive: [12]
active: [5] 5.9 µM

CC[C@H]1OC(=O)[C@H](C)[C@@H](O[C@H]2C[C@@](C)(OC)[C@@H](O)[C@H](C)O2)[C@H](C)[C@@H](O[C@@H]2O[C@@H](C)C[C@H](N(C)C)[C@@H]2O)[C@](C)(O)C[C@@H](C)C(=O)[C@H](C)[C@@H](O)[C@]1(C)O
inactive: [2] | [3]
inconclusive: [5] 29.6 µM [cytotoxic, single point] | [6] 33.2 µM [cytotoxic, single point] | [16] 30.6 µM [cytotoxic, partial curve, poor fit]

COC1CCC(C(=O)c2ccc3nc4c(cc3c2)CCCO4)CC1 (centres undefined)
inconclusive: [13] 4.85 µM [cytotoxic, full curve] | [14] 14.8 µM [cytotoxic, partial curve] | [2] 18.7 µM [cytotoxic, partial curve] | [15] 27.1 µM [cytotoxic, partial curve] | [7] 6.62 µM [cytotoxic, partial curve, poor fit] | [3] 11.8 µM [cytotoxic, partial curve, poor fit] | [9] 29.6 µM [cytotoxic, single point] | [19] 11.8 µM [cytotoxic, partial curve] | [11] 9.35 µM [cytotoxic, partial curve]
active: [5] 23.5 µM

Oc1ccc(C2CNCCc3c2cc(O)c(O)c3Cl)cc1 (centres undefined)
inactive: [5]
